The values that follow come from the RNAGym collection of RNA variant scans (doi:10.7554/elife.90254).

Read counts are not given, so values of variants with three or more changes are uncertain.

The labels stand for the following.
B1: LINE1-mini (parent)
chain: GGCAGAGCUCAACACAGCGUGGCAAAGUGGCUGUGGCUAGACUGCC

Variants of B1 are the subject of this series. The series is described as follows: self-cleavage, relative activity (ratio to wild type); higher = more cleavage; in vitro, sequencing; the parent is a self-cleaving ribozyme.
Turning to C13U G29U C31A U38C, the self-cleavage was 0.03.
Next, A14C G30U C42A: 0.06; A14C A16C U32A G40U: 0.01.
Regarding A14C C23A A24C, the self-cleavage turned out to be 0.08.
Next, A14G A24U A26U G33A: 0.01; A14G A16C C18G C23G G33U A41C U43C: 0.01.
Next, C15A A25U G30A C45G: 0.05.
Next, C15A G22A C31A A39U: 0.02; A14U A16G C37G A41G: 0.02; C15A A16G G33C G44C: 0.
Take C15A G19U A26U: the self-cleavage amounted to 0.06.
To C15A A16U G17A A24C A25G U28C G44C belongs 0.01.
Turning to C13U G40U C45G C46A, the self-cleavage turned out to be 0.02.
Next, A14C G29U G36U: 0.05; A14C A16U G19A G22C: 0.07; A14U G22U C23G G40C: 0.04.
Consider A14G G19U A24G A39U G40C, for which the self-cleavage came out at 0.02.
Next, A14C G27U G33U: 0.02; C15A G22U A24G G40U: 0.09; A14U G19A U38A: 0.1.
Next, C15A A41C C42G: 0.
With A14U C18U A24C, the self-cleavage is 0.31.
In the case of A14C G19C U38A, the self-cleavage came to 0.01.
To A14C G17A G27C C42G belongs 0.02; to C15A C18U G33U C42U, 0.2; to A14U U34A U38A, 0.25.
Consider A14G G29U G30A G36C, for which the self-cleavage turned out to be 0.12.
As for A14C G21U C23U U28A, the self-cleavage was 0.05.
In the case of A14C C15U U20A, the self-cleavage was 0.07.
For the variant A14C G21C A39G, the self-cleavage stood at 0.
Next, A14G G30A C37U: 0.05; A14G G27A G36C: 0.06; C15A A24U U34C A39G G40C: 0.02.
With C15A G17A A26C U28A U38A, the self-cleavage was determined as 0.
To A14U G22A G40A belongs 0.13.
As for A14C G27U U32A A39C, the self-cleavage worked out at 0.02.
To C13U G33U C46U belongs 0.03; to C13U G33U C46G, 0.05.
In the case of A14G A25G U34A, the self-cleavage was 0.02.
Next, A14G A16U A24G U34C: 0.05; A14G G21U C37G: 0.03; A14U C31G C37A: 0.06.
With C15A A16G U38C G40C, the self-cleavage stood at 0.05.
For the variant A14C C15G G22A C37G, the self-cleavage was determined as 0.05.
For the variant C13U G22A C31G, the self-cleavage was found to be 0.34.
A14G G29A C46U: the self-cleavage worked out at 0.4.
In the case of C15A G19C U28C G30A, the self-cleavage was 0.1.
To A14C A16G C45G belongs 0.03; to A14C A26G U43C, 0.07; to A14C G19C G44U, 0.03.
In the case of A14U U20A G22U G36U, the self-cleavage stood at 0.03.
Consider A14G G17U G27C, for which the self-cleavage was 0.
Next, A14U G29A A39U G44C: 0.03.
To A14U C37G C42U belongs 0.01; to C15A G22U A24G U43C, 0.01.
To A14C C15A C37G belongs 0.02; to A14C C18A G19C, 0.19.
For the variant C15A G22U G27A G33U, the self-cleavage came out at 0.35.
For A14U G17A G29C, the self-cleavage is 0.05.
Regarding A14C C23A G29A, the self-cleavage turned out to be 0.19.
To A14G A25G G44C belongs 0.11.
Next, C13U G22U G27C C31U: 0.03; C13U G27U C31U C46U: 0.05.
To A14C G22C U43C belongs 0.05; to C13U U28A G40A, 0.15; to A14C C31A C42U, 0.1.
For the variant C15A C31G U34C, the self-cleavage was determined as 0.03.
A14C C23A C37A: the self-cleavage amounted to 0.05.
Next, A14G C23A A39U: 0.07.
For the variant A14G G22A A24C G27U G30A G35C A41G C46A, the self-cleavage came to 0.45.
On to A14U G17U C31U U38C A39U C45A, for which the self-cleavage turned out to be 0.02.
As for C15A A24G C37A, the self-cleavage is 0.04.
In the case of A14U A24U G27A, the self-cleavage amounted to 0.46.
On to A14C A16G G40U, for which the self-cleavage amounted to 0.03.
Next, A14U A16C G22C: 0.05; A14U U20A C42U: 0.09; C13U G27A C42U C45G: 0.04.
Consider A14U C31U A39U G40C, for which the self-cleavage turned out to be 0.02.
Next, A14C G27U G35U A41C U43A: 0.03; C15A A24U U28A G40U: 0.08; A14U C37U U38A: 0.06.
As to A14C C15A G17C, the self-cleavage is 0.04.
For the variant C13U U20A G36A, the self-cleavage amounted to 0.02.
To A14C A26C G27A G40C belongs 0.05.
As to A14G U28G G44A, the self-cleavage stood at 0.12.
To A14G A26C G30U G35U belongs 0.09; to C13U G22A G27C G29U, 0.09; to A14C A25C G30U, 0.09.
As for A14U G17A U28A, the self-cleavage was found to be 0.03.
As to A14G G36A C42U, the self-cleavage is 0.08.
Take C13U U34C A39U: the self-cleavage stood at 0.09.
Next, C15A A25G A26C U43C: 0.05; A14G C23A G29A G33A: 0.1; C15A C23U A25G G29U G36A C46U: 0.02.
Next, A14C G21U G30C G40C C42G: 0; A14C G30C G35U A39C: 0.15.
To C13U G35C G36U belongs 0.06; to C15A C18G C37G, 0.03.
With A14G U20A G22U C31U A39U C42G, the self-cleavage was determined as 0.15.
To C15A A16G C31U belongs 0.02; to C15A A16U G36C C37A, 0.09; to C15A G17C G21U C45G, 0.03.
To A14U A25U C42A belongs 0.02.
To C15A A26G G33A belongs 0.03; to A14U U28G C37U A39G, 0.01; to A14U G17A U20C G30C G36C, 0.09.
In the case of A14U G19C A24G, the self-cleavage was 0.35.
In the case of C13U U34C G35C A39C A41C, the self-cleavage is 0.03.
As for A14G A24U C37G, the self-cleavage was 0.01.
As to C15A C18A A26G U38A C45G, the self-cleavage was 0.01.
For C15A G21U G29U, the self-cleavage stood at 0.3.
Next, A14C C18A G30C G44C C45G: 0.02.
In the case of C13U U34C C45U, the self-cleavage is 0.04.
Regarding A14U C23A G40U, the self-cleavage came out at 0.13.
As for C15A G17A G35U, the self-cleavage was found to be 0.04.
To A14U G21C G27U belongs 0.76; to C15A G19U C31U, 0.03; to A14G G17A C18U A26U, 0.09.
Next, A14U G17U G22U A26U C37A: 0; C13U U20A G29U U43A: 0.25.
Consider A14G U20G U32C G36C A39C, for which the self-cleavage worked out at 0.03.
To C15A G17A C18A G27U belongs 0.02; to A14G C37A G40C, 0.24; to A14G C37A G40U, 0.08.
To C15A G17A G29C belongs 0.09; to A14C A16C U20C, 0.07; to C15A A24G G35U, 0.07.
To C15A G21C A26C G30C G35U belongs 0.02; to C13U G33C U38C C42U, 0.02.
Take A14C A16U G21C G33U G40U: the self-cleavage came to 0.02.
On to A14U U20A G30U, for which the self-cleavage is 0.06.
Next, A14G G27C G30U C31G U32A G40A: 0.03; A14U G22A G29U: 1.55; C13U U20A G33A G40A: 0.02.
A14G A25C U28C: the self-cleavage worked out at 0.13.
To A14G U32C C46G belongs 0.03.
To A14U G27U G35U C37U G40U belongs 0.06; to A14U G40A G44C, 0.08.
Next, A14C G30U G44U: 0.02; C15A C37A U43G: 0; A14U U32A U34G: 0.09.
For the variant C15A C18A C42U U43C, the self-cleavage turned out to be 0.03.
Next, C15A A24G C42A C45U: 0.06.
Consider A14C G22U G40A, for which the self-cleavage came out at 0.02.
To A14C G36U A41G belongs 0.07; to A14C A24U A25U A26U G35U, 0.05; to A14G G29U C46A, 0.18.
Next, A14G G21A U43C: 0.21.
To A14C C15G G44U belongs 0.05.
With A14G G17U G29A, the self-cleavage was determined as 0.12.
To A14U U20G U28G C31U C42G belongs 0; to A14C C31A G36U, 0.85.
To C15A G21A U34G belongs 0.
As to C13U G22U G30U, the self-cleavage worked out at 0.72.
Take C13U U20A G44U: the self-cleavage turned out to be 0.04.
Next, A14G C31A G40A: 0.05; A14G A25G U43C: 0.06.
To A14G A16G U20C belongs 0.12; to A14U G27U U28A G29U G35A, 0.54.
Next, C15A G22C C45A: 0.02.
Take A14U G17U A24U: the self-cleavage was 0.05.
For the variant A14U C15G C23A C45G, the self-cleavage came out at 0.06.
On to C13U U34G C42G, for which the self-cleavage was determined as 0.02.
To A14G G29C C31G G40U belongs 0.03; to C13U U20G G33U U43A, 0.
In the case of A14C G22U A24U A26C C42A, the self-cleavage turned out to be 0.03.
To A14U U20C C23A belongs 0.59.
